Measured values as given in PubChem BioAssay AID686971 (National Center for Advancing Translational Sciences (NCATS), 2013).
The whole screen tested about 360,000 compounds, of which about 7,500 (2.1%) were called active. The shares of active, inactive and inconclusive entries below differ from those in the screen. The call rests on the fitted dose curve; in most records, active means well fitted cell-killing curve with a large enough effect; inconclusive means small, poorly fitted or top-dose-only effect, or effect the other way, or another doubt; inactive means no such curve, though single readings can be large or run the other way. Potencies of inconclusive entries are left out as doubtful fits.

experiment: qHTS for induction of synthetic lethality in tumor cells producing 2HG: qHTS for the HT-1080-IDH1KD cell line; conditions: HT-1080 IDH1 knockdown viability, ATP luminescence, 48 h; activity, negative = toxicity: at 46.1 µM (top of the series) unless noted;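 on activity, negative = toxicity: 0% = DMSO wells and -100% = cell-free medium wells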
In short: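 HT-1080-IDH1KD cells (IDH1 knocked down), 750/well in RPMI with 5% FBS, treated with compound 48 h at 37 degrees C. Viability by CellTiter-Glo luminescence, normalised to DMSO and no-cell wells; concentration-response curves classed.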
Potency means the concentration at half of the fitted maximal effect; tags describe the fitted curve by direction and shape.

SMILES	Potency	activity, negative = toxicity
CCCc1cc(-c2ccc(O)c(OCC)c2)c(C#N)c(N)n1	inconclusive [cytotoxic, single point]	
Cc1ccc2c(c1)cc(C(=O)NCc1ccccc1)n2C	inconclusive [cytotoxic, full curve]	
COc1cc(-c2nc3ccc(C)cn3c2NCc2ccccc2)ccc1SC1CCCCC1	inconclusive [cytotoxic, single point]	
CCCCCCn1c(O)c(/C=C2\C=NN=C2c2ccccc2)sc1=S	inconclusive [cytotoxic, single point]	
COc1ccc(NC(=O)c2ccc(CN3CCN(c4ccccc4)CC3)cc2)cc1OC	inconclusive [cytotoxic, partial curve]	
COC(=O)c1sccc1NC(=O)c1c(F)c(F)c(F)c(F)c1F	inconclusive [cytotoxic, single point]	
O=C(Nc1ccc(S(=O)(=O)Nc2nccs2)cc1)c1cc(-c2ccccc2Cl)nc2ccccc12	inconclusive [cytotoxic, single point]	
S=C(Nc1ccccc1)Nc1cc(Cl)ccc1Oc1ccccc1	inconclusive [cytotoxic, single point]	
COc1cc(C=c2c3ccccc3n3c2cc(-c2ccccc2)[n+]3C)cc(OC)c1OC	inconclusive [cytotoxic, single point]	
O=Cc1ccccc1OCCOc1ccccc1C=O	active: 7.08 µM	
Cc1cc(C(=O)NNC(=O)c2ccc(C)c([N+](=O)[O-])c2)c(C)o1	inactive	
COC(=O)c1c(NC(=O)c2cccc([N+](=O)[O-])c2)sc(C(N)=O)c1C	inconclusive [cytotoxic, full curve]	
CC(=O)/C(C#N)=C1\NC(=O)C(Cc2cc(Cl)ccc2Cl)S1 (stereo not drawn)	inconclusive [cytotoxic, partial curve]	
Cc1nn(-c2ccc(F)cc2)c2nc(N)c(C#N)c(-c3ccc(O)c(O)c3)c12	inconclusive [cytotoxic, partial curve, poor fit]	
COc1ccc(-c2c3c(=O)n(C)c(=O)n(C)c3cn2-c2cc(OC)ccc2OC)cc1	inconclusive [cytotoxic, single point]	
CCCn1c(NC(=O)c2cccc(C)c2C)nc2ccccc21	inconclusive [cytotoxic, single point]	
C[C@@H]1CN([C@@H](C)CO)C(=O)CCCn2cc(nn2)CO[C@H]1CN(C)S(=O)(=O)c1ccc(C#N)cc1	inactive	
O=C(Nc1nc2ccccc2[nH]1)c1ccc(OC(F)F)cc1	inconclusive [cytotoxic, partial curve]	
Cc1ccc(S(=O)(=O)n2cccc2/C=C/[N+](=O)[O-])cc1	inconclusive [cytotoxic, single point]	
CCCN(CCC)CCCNC(=O)Cn1cnc2sc(C)c(S(=O)(=O)N3CCOCC3)c2c1=O	inactive	
Cc1ccc(-n2c(SCC3CCCCO3)nnc2-c2ccco2)cc1 (stereo not drawn)	inconclusive [cytotoxic, single point]	
N#CC1=C(SCC(=O)NC2CC2)NC(=O)C(C#N)C12CCCCC2 (stereo not drawn)	inactive	

SMILES	Potency	activity, negative = toxicity
O=C(NC(=S)NC1CCCCC1)c1ccccc1	inactive	
N#Cc1ccc(CN2CCN(C(=O)CCNS(=O)(=O)c3ccc(F)c(Cl)c3)CC2)cc1	inactive	
CCOC(=O)c1cc2sccc2n1Cc1ccc(C#N)cc1	inconclusive [cytotoxic, single point]	
O=C(NNc1ccccc1)C(=O)N1CCCCC1	inconclusive [cytotoxic, partial curve]	
COc1ccccc1/C=N/Nc1cc(N(C)C)nc(N(C)C)n1	inconclusive [cytotoxic, partial curve]	
O=[N+]([O-])c1c(C(Cl)Cl)nn(-c2ccccc2)c1N1CCCC1		inconclusive: -30.7%
O=C(Oc1cc(=O)oc2ccccc12)c1ccccc1	active: 16.4 µM	
COc1ccc([C@H]2[C@H](C(=O)C(C)(C)C)N3N=Cc4ccccc4C3[C@]23N=C(c2ccccc2)OC3=O)cc1OC (stereo partly drawn)	inactive	
NS(=O)(=O)c1ccc(NC(=S)NC(=O)c2ccc(-c3ccccc3)cc2)cc1	inconclusive [cytotoxic, single point]	
CC(N)c1csc(NC(=O)c2cc(C(C)(C)C)nn2Cc2ccccc2)n1 (stereo not drawn)	inconclusive [cytotoxic, single point]	
O=C(COc1ccc2ccccc2c1Br)Nc1ccncc1	inconclusive [cytotoxic, single point]	
O=C(C[C@H]1C[C@H](C(=O)N2CCOCC2)[C@@]2(CCC3CCCC3)c3[nH]c4ccc(Cl)cc4c3CCN2C1=O)NCCCn1ccnc1	inconclusive [cytotoxic, partial curve]	
CC(C)C(NS(=O)(=O)c1cccs1)C(=O)N(C)Cc1ccccc1 (stereo not drawn)	inconclusive [rising, single point]	
Cc1cccc(N2CCN(C(=O)Cc3ccc(Br)cc3)CC2)c1C	inconclusive [cytotoxic, single point]	
Nc1nc(NC(=O)c2cccc(S(=O)(=O)N3CCCCCC3)c2)nc(-c2ccccc2)n1	inconclusive [cytotoxic, partial curve]	
Cc1noc(NC(=O)c2ccc(Cl)cc2)c1Cl		inconclusive: 1.81%
CCN(CC)CCC(c1ccc(OC)cc1)c1c(O)cc(OC)cc1OC (stereo not drawn)	inactive	
CCn1c(=N)n(CC(O)COc2ccc(C)cc2)c2ccccc21 (stereo not drawn)	inconclusive [cytotoxic, single point]	
O=C(NC(=S)Nc1ccc(N2CCCCC2)cc1)c1cccs1	active: 3.98 µM	
O=C(NC1CCCCC1)C(c1ccc2ncccc2c1)N(Cc1ccccc1)C(=O)c1cccs1 (stereo not drawn)	inconclusive [cytotoxic, single point]	
O=c1[nH]c2ccccc2c(O)c1Cc1ccccc1	inactive	
